Data as given in the supplement of paper PMC10126150.
Sequences with one replicate were seen in a single cluster, so their values are uncertain.

Test system: ATP
Assay: switch fluorescence ratio, 500 uM ATP over buffer (Cy3 cluster intensity, sum of 5 cycles each) (fold (ratio)); higher = stronger signal-on switching upon ATP binding; sequences stand for … in TCGTCGGCAGCGTCAGATGTGTATAAGAGACAGTTTTTTTTTTTTTTTTTTTTTTTTT…TC
Details: aptamer strand: ATP DNA aptamer (quencher-CACCTGGGGGAGTATTGCGGAGGAAGG + anchor), 100 nM annealed; ATP concentration: 500 uM; one replicate
In short: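 The fluorescence ratio divides summed target-cycle Cy3 intensity by summed buffer-cycle Cy3 intensity for each cluster and is averaged per switch-domain sequence. Cy3-labelled switching-strand clusters on a modified Illumina MiSeq flow-cell were annealed to 100 nM quencher-labelled ATP aptamer, then imaged in selection buffer and again after 15 min with 500 uM ATP at 22 °C. Five such cycles were run, with NaOH stripping and re-annealing between them, and clusters outside 100-1000 RFU were excluded.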
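Also: ATP exposure 15 min at 22 °C before imaging.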

Sequence	switch fluorescence ratio
GGTAGAAAAA	1.01
AGCTTTTGCA	1.02
GCTTCGAACT	1
TACCAAGTGA	1.03
ACATTGTGAC	1.03
AATAATTGGA	0.97
CTCACAAGGG	1.12
CTTGAGGCAC	0.965
ACATTTATTA	0.987
GGGGTGTGCC	1.02
GGCTTCAGGT	0.984
AAGAGCCCCA	1.05
CGGCCGGGGG	1.01
GGGGAGTATA	1.02
AGTAATAGCC	0.864
GCCGTTCTCG	1
ATCTCTCCTC	1.09
ACAAAAGTTA	1.07
TAGGAGCATG	1.02
TCGCACAATA	1.47
AAATGTTAGT	1.03
CCTTGAACGA	1.03
TTGCATATTA	1.02
GCTATATTGT	0.987
ATAGGACGAG	0.982
GAAAATGGGC	1.1

Sequence	switch fluorescence ratio
ATTACCTCCC	1.6
GTGCAGTGAG	0.997
ACTGATATTT	1.03
TGTCTTATAG	0.982
CGAATTGGCG	1.06
TTTGAGGCTA	1
GGTCATACGG	1.1
GCCATTTGTC	1.02
CAGGAGCTTG	1.06
ATAAGTGACC	1.04
TCGAGATGAG	0.947
ACCGCCGAGT	1.12
ATGGACTAGT	0.969
GGTGCTGTAT	1.03
CGGGCGAGGT	1.04
TGTATCAAAG	0.972
TTGTTAGGTC	1.05
AAGTACATGG	1.18
TATTGTGGCG	0.979
TTTTCGCAAT	6.63
ACAATCGTTC	0.982
TCGTAGTTAT	1.1
ACATGTCAGG	1.05
CCAGGAGGGC	0.973
ACCTTGTCTT	1.03
GTAATACTTA	1.12

Sequence	switch fluorescence ratio
GTTTTACCCC	1.06
CGTCATGTAA	0.996
GACACGGCAG	0.978
TGTTAATATA	1.04
ATGGATTGAG	1
TTGAGGGTGT	1.06
TGCGGGGCCC	0.946
TGTTCACCGG	1.01
AAGACATACC	1.42
AGTCCCTAAG	0.999
ACTGTAAACG	1.03
TGAGCGCAGT	1.07
ATTTTAAAT	1.01
TCCCGGCGTC	1.08
CATTTCGGTA	1.01
TTGTAGCTAC	1.24
ATACTGCAGC	1.02
CGTTCAGATT	1.02
AAATCTACAT	0.992
ACCCTTTAAT	1.04
ACGACACTAG	1.13
ACCGGAGCTC	5.56
AAGGGATGTG	1.01
ACGTAGACAT	1.18
GACATGCCG	1.08
CAGTGAA	0.982

Sequence	switch fluorescence ratio
CATGCGCGTC	1.12
TGCATCTTGC	1.06
GTCGAGCAGC	1.09
GAAGAACCGA	1.09
GCATCTGAAA	1.02
CAAGGGTGAT	1.01
AGGGCGCAGT	1.03
TTTCTTTTAA	1.01
TCCGTTGTAG	1.22
AGTTCTTCGG	0.965
TATAGAACAA	1.02
TAAAGTCAAT	1.03
CAAAACGGTA	1.03
AACGGTGCTT	0.9
CCCACTCTTA	1.03
AATGTATACC	1.02
TGATCTGAGA	0.963
CACAAATCA	0.976
TACACCGATT	0.993
ATAAGCAGAC	2.18
TTGTGCAGTT	1.06
AATCTCTTTG	0.996
TAGGCGCGCA	1.01
TGTCCGTTTC	0.986
ACCTAGGTAG	1.02
AGTAACCAGA	0.984

Sequence	switch fluorescence ratio
AAGCATCGCC	0.982
GCCGTGGCTT	0.972
CGATGTTCTA	1
CGAAGCATAA	2.89
CGGTTTGTAG	1
AGACATTCGG	1
AATGTTATGA	1.06
AAGAAATGGC	0.951
GTGGGTACTC	1.14
GAGTGCAAAG	1
GGATCCTAGG	1.01
GCACATATAC	1.67
ATATTAAACT	1.02
GGCCTGTAAT	1.04
AAGTGGAGTT	0.991
ATCAGCGGAA	0.995
GGGCCGCCGC	1.07
CTTTTAAAGG	1.03
CAAAGCCAGC	1.03
CAGGCGCCTC	0.975
AACTGGAGAA	0.947
TAGTGTTTAC	1.01
GTGCGTTGAC	1.05
AGGGGATCTA	0.968
CCATTTCAGG	1.02
GCGAACGCGT	0.992

Sequence	switch fluorescence ratio
CTAGTACATG	1.02
TCATCCAGGT	2
GTTGTTGGAG	0.919
AACCGAAGTC	1.19
GCCACTCGGC	0.981
GCCAGAACCG	1.05
TGGAGGAATA	1.61
CTTAAGTCCG	1.01
TGAAAGGTCG	1.02
ATCCGCACTT	2.95
CTTTCATTAG	0.971
GCATATCGGT	1.01
TATTATGTGA	0.99
TGGTCCGGTT	1
AAATCGTCAA	1.07
ATTTTGGACA	1.03
AACAACGAGA	1
AGCTTCGTTG	0.981
ATGTTCACCG	1
GGTTTTGCGA	1.01
TGCGATCAGA	0.99
TAGGACGGGC	0.995
TTCCGTATAG	1.62
